# Measured values reported in the supplement of paper PMC2702839.
# Structures can show the parent of a compound that is named as a salt. The list shows a part of the results.
# Tested on: Schistosoma mansoni schistosomula
# Assay: phenotypic hit in primary schistosomula screen (any phenotype vs DMSO control) (binary (1 = hit, 0 = no phenotype)); higher = active (phenotype induced)
# Details: 1 µM; time (d): 7
row,SMILES,phenotypic hit
1,COc1ccc(-c2oc3cc(O[C@@H]4O[C@H](CO)[C@@H](O)[C@H](O)[C@H]4O)c(OC)c(O)c3c(=O)c2OC)cc1O [centaurein],inactive: 0
2,COc1ccc(C(=O)c2ccccc2)c(O)c1O [3-desmethyl-5-deshydroxyscleroin],inactive: 0
3,C(=C\c1ccccc1)/CN1CCN(C(c2ccccc2)c2ccccc2)CC1 [cinnarazine],inactive: 0
4,C[C@@H]1C[C@H]2[C@@H]3CCC4=CC(=O)C=C[C@]4(C)[C@@]3(F)[C@@H](O)C[C@]2(C)[C@@]1(O)C(=O)COP(=O)(O)O [dexamethasone sodium phosphate],inactive: 0
5,C[C@]12CC[C@@H]3c4ccc(OC(=O)c5ccccc5)cc4CC[C@H]3[C@@H]1CC[C@@H]2O [estradiol benzoate],inactive: 0
6,CN1CCN(C(c2ccccc2)c2ccccc2)CC1 [cyclizine],inactive: 0
7,OCCN(CCO)c1nc(N2CCCCC2)c2nc(N(CCO)CCO)nc(N3CCCCC3)c2n1 [Dipyridamole],inactive: 0
8,C[N+](C)(C)CC(=O)O [betaine hydrochloride],inactive: 0
9,Cc1c(C(=O)O)c(O)cc2c1C(=O)c1c(O)c([C@@H]3O[C@H](CO)[C@@H](O)[C@H](O)[C@H]3O)c(O)c(O)c1C2=O [carminic acid],inactive: 0
10,COc1c(-c2ccccc2)oc2c(ccc3occc32)c1=O [karanjin],inactive: 0
11,CC(C)=CCC/C(C)=C/CC/C(C)=C/CO [farnesol],inactive: 0
12,O=C1CN(/N=C/c2ccc([N+](=O)[O-])o2)C(=O)N1 [nitrofurantoin],inactive: 0
13,Cc1ccccc1OCC(O)CO (configuration not stated) [mephenesin],inactive: 0
14,C[C@H](N)[C@H](O)c1cccc(O)c1 [metaraminol bitartrate],inactive: 0
15,CC1(C)S[C@@H]2[C@H](NC(=O)C(C(=O)O)c3ccccc3)C(=O)N2[C@H]1C(=O)O (some centres not stated) [carbenicillin disodium],inactive: 0
16,CCN(CC)CCOC(=O)C(Cc1cccc2ccccc12)CC1CCCO1 (configuration not stated) [nafronyl oxalate],inactive: 0
17,O=C1CN(/N=C/c2ccc(-c3ccc([N+](=O)[O-])cc3)o2)C(=O)N1 [dantrolene sodium],inactive: 0
18,"C=C[C@@H](C1=CC(=O)C(OC)=C(OC)C1=O)c1ccccc1 [3,4-dimethoxydalbergione]",inactive: 0
19,COc1cc(O)c2c(c1)C(=O)c1cc(C)cc(O)c1C2=O [physcion],inactive: 0
20,Cc1cc(NS(=O)(=O)c2ccc(N)cc2)no1 [sulfamethoxazole],inactive: 0
21,CN[C@@H]1[C@@H](O)[C@@H](O[C@@H]2[C@@H](O)[C@H](O[C@H]3OC(CN)=CC[C@H]3N)[C@@H](N)C[C@H]2N)OC[C@]1(C)O [sisomicin sulfate],active: 1
22,C=C[C@](C)(O)CCC=C(C)C [linalool (+)],inactive: 0
23,NC[C@H]1O[C@H](O[C@H]2[C@H](O)[C@@H](O[C@H]3O[C@H](CO)[C@@H](O)[C@H](N)[C@H]3O)[C@H](N)C[C@@H]2N)[C@H](O)[C@@H](O)[C@@H]1O [kanamycin sulfate],inactive: 0

row,SMILES,phenotypic hit
1,COC(=O)CC1C(C)(C)C(OC(C)=O)[C@@H]2[C@@H](OC(C)=O)[C@]34O[C@@]2(O)[C@]1(C)C3CC[C@]1(C)C4=CC(=O)O[C@H]1c1ccoc1 (some centres not stated) [xylocarpus a],inactive: 0
2,O=C(O)Cc1cc(I)c(Oc2cc(I)c(O)c(I)c2)c(I)c1 [tetrac],inactive: 0
3,CCN(CC)CCOc1ccc2c(c1)C(=O)c1cc(OCCN(CC)CC)ccc1-2 [tilorone],inactive: 0
4,C=C[C@@]1(C)CC(=O)[C@]2(O)[C@@]3(C)[C@@H](O)CCC(C)(C)[C@@H]3[C@H](O)[C@H](OC(C)=O)[C@@]2(C)O1 [colforsin],inactive: 0
5,CCN(CC)C(=S)SSC(=S)N(CC)CC [disulfiram],inactive: 0
6,C=C/C(C)=C\CC1C(C)(O)CCC2C(C)(C)CCCC21C (configuration not stated) [abienol],inactive: 0
7,C/C(=C(\CCOP(=O)(O)O)SC(=O)c1ccccc1)N(C=O)Cc1cnc(C)nc1N [benfotiamine],inactive: 0
8,"Nc1c2c(nc3ccccc13)CCCC2 [9-Amino-1,2,3,4-tetrahydroacridine hydrochloride]",inactive: 0
9,O=c1cc(-c2ccccc2)oc2cc(O)cc(O)c12 [chrysin],inactive: 0
10,C#C[C@]1(O)CC[C@H]2[C@@H]3CCc4cc(O)ccc4[C@H]3CC[C@@]21C [ethinyl estradiol],active: 1
11,Cc1occc(=O)c1O [larixinic acid],inactive: 0
12,CC(C)=CC1C(CO)C1(C)C (configuration not stated) [chrysanthemyl alcohol],inactive: 0
13,"CC1=CCC2C3(C)C1=CC(=O)OC3CC1C(C)(C)CC(O)C(O)C12C (stereo not drawn) [merogedunin, 3-deoxo-1alpha,3alpha-dihydroxydihydro-]",inactive: 0
14,CC1(C)CC23C(=O)CCC(O)C2(C)CCC13 (configuration not stated) [3-nor-3-oxopanasinsan-6-ol],inactive: 0
15,COc1cc2c(cc1OC)C1(O)C(=O)c3ccc(O)c(C(=O)O)c3OC1CO2 (configuration not stated) [12a-hydroxy-9-demethylmunduserone-8-carboxylic acid],inactive: 0
16,CCC(C(N)=O)c1ccccc1 (configuration not stated) [fenbutyramide],inactive: 0
17,CC1(O)/C=C\C=C(\CO)C2CC(C)(C)C2(O)CC1 (configuration not stated) [punctaporin b],inactive: 0
18,COc1ccc(C(=O)c2ccccc2)c(O)c1 [oxybenzone],inactive: 0
19,COc1c(N2C[C@@H]3CCCN[C@@H]3C2)c(F)cc2c(=O)c(C(=O)O)cn(C3CC3)c12 [moxifloxacin hydrochloride],inactive: 0
20,CC(=O)OCC(=O)[C@@]1(O)[C@H](C)C[C@H]2[C@@H]3CCC4=CC(=O)C=C[C@]4(C)[C@@]3(F)[C@@H](O)C[C@@]21C [dexamethasone acetate],inactive: 0
21,"CC1(C)C(=O)C=CC2(C)C1C=CC1(C)C2CCC2(C)C(c3ccoc3)OC(=O)C3OC312 (configuration not stated) [7-desacetoxy-6,7-dehydrogedunin]",inactive: 0
22,COc1ccc(C(=O)CC(=O)c2ccc(C(C)(C)C)cc2)cc1 [avobenzone],inactive: 0
23,Cc1ccc(C(C)C)c(O)c1C(=O)O [orthothymotinic acid],inactive: 0

row,SMILES,phenotypic hit
1,CC1(C)C(=O)[C@H]2C[C@]3(O)C4=CC(=O)O[C@@H](c5ccoc5)[C@@]4(C)CCC3[C@](C)(C2=O)[C@H]1CC(=O)O (some centres not stated) [8-hydroxycarapinic acid],inactive: 0
2,Nc1nc2c(ncn2COCCO)c(=O)[nH]1 [Acyclovir],inactive: 0
3,NCCSSCCN [cystamine dihydrochloride],inactive: 0
4,CCCCCN(CCCCC)C(=O)C(CCC(=O)O)NC(=O)c1ccc(Cl)c(Cl)c1 (configuration not stated) [Lorglumide sodium],inactive: 0
5,CC(C)c1c(O)ccc2c1CC[C@H]1C(C)(C)CCC[C@]21C [totarol],inactive: 0
6,C=C1C(=O)O[C@H]2C[C@@H]1C(OC(C)=O)C/C(C)=C/CC/C(C)=C/CC[C@@]2(C)O (some centres not stated) [crassin acetate],inactive: 0
7,CCC/C=C/C=C/C1C[C@@H](O)[C@@H](O)C(=O)[C@H]1C=O (some centres not stated) [frequentin],inactive: 0
8,CCCC1O[C@@H]2C[C@H]3[C@@H]4CCC5=CC(=O)C=C[C@]5(C)[C@H]4[C@@H](O)C[C@]3(C)[C@]2(C(=O)CO)O1 (some centres not stated) [budesonide],inactive: 0
9,O=NN(CCCl)C(=O)NCCCl [carmustine],inactive: 0
10,Nc1nc(N)c2nc(CNc3ccc(C(=O)N[C@@H](CCC(=O)O)C(=O)O)cc3)cnc2n1 [Aminopterin],inactive: 0
11,CC(C(=O)O)c1cccc(C(=O)c2ccccc2)c1 (configuration not stated) [ketoprofen],inactive: 0
12,C[C@H]1O[C@@H](n2cc(F)c(=O)[nH]c2=O)[C@H](O)[C@@H]1O [5-fluoro-5'-deoxyuridine],active: 1
13,O=c1c(-c2ccc(O)cc2)coc2cc(O)ccc12 [Daidzein],inactive: 0
14,C=C1[C@@H]([C@@]2(C)C=CC(=O)C(C)(C)[C@@H]2CC(=O)OC)CC[C@@]2(C)[C@H](c3ccoc3)OC(=O)[C@H]3O[C@]132 [andirobin],inactive: 0
15,CC(=O)CCCCn1c(=O)c2c(ncn2C)n(C)c1=O [Pentoxifylline],inactive: 0
16,O=C(O)C=C1CCCc2ccccc2C1O (configuration not stated),inactive: 0
17,COc1ccc(-c2coc3cc(O)ccc3c2=O)c(OC)c1O [koparin 2'-methyl ether],inactive: 0
18,O=C(CCc1ccc(O)cc1)c1c(O)cc(O)cc1O[C@@H]1OC(CO)[C@@H](O)[C@@H](O)C1O (some centres not stated) [phloridzin],inactive: 0
19,C/C1=C2/[N-][C@H]([C@H](CC(N)=O)[C@@]2(C)CCC(=O)NC[C@@H](C)OP(=O)([O-])O[C@H]2[C@@H](O)[C@@H](n3cnc4cc(C)c(C)cc43)O[C@@H]2CO)[C@]2(C)N=C(/C(C)=C3N=C(/C=C4N=C1[C@@H](CCC(N)=O)C\4(C)C)[C@@H](CCC(N)=O)[C@]\3(C)CC(N)=O)[C@@H](CCC(N)=O)[C@]2(C)CC(N)=O.[Co] [cobalamine],inactive: 0
20,CCCCCNC(=N)N/N=C/c1c[nH]c2ccc(OC)cc12 [tegaserod maleate],inactive: 0
21,O=C(Oc1ccccc1C(=O)O)c1ccccc1O [salsalate],inactive: 0
